# Data: PubChem BioAssay AID686979 (National Center for Advancing Translational Sciences (NCATS), 2013)
# Hit rate of the full screen: of about 420,000 compounds, about 50,000 (12%) were called active. The inconclusive results got no clear call from the source; some entries with a clear call stand among them for comparison. Calls follow the shape of the dose curve; as a rule, active = well fitted inhibition curve with a large enough effect; inconclusive = small, poorly fitted or top-dose-only effect; inactive = flat fitted curve, though single readings scatter. No potency is given beside an inconclusive call; the fits are too rough.
# Assay: qHTS for Inhibitors of human tyrosyl-DNA phosphodiesterase 1 (TDP1): qHTS in cells in presence of CPT; also: nearly all actives have a fitted effect of over 55% in size
# Details: chicken DT40 Tdp1-/-;hTDP1 cells + 20 nM CPT, ATP luminescence, 48 h; activity change, negative = growth inhibition: at 46.2 µM (top of the series) unless noted
# In short: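 Chicken DT40 Tdp1-/- cells stably complemented with human TDP1 were seeded at 400 cells/well in medium containing 20 nM camptothecin, exposed to pin-transferred compounds, and grown at 37 °C for at least 48 hr. Viability was read as ATP luminescence.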
# % is scaled to controls: 0 for no effect and ±100 for the full control effect; potency is read from the fitted curve at half-maximal effect; tags tell the direction and shape of the fitted curve.
Compound,"activity change, negative = growth inhibition",Potency
O=C(NC(CO)Cc1ccccc1)c1ccccc1 (stereo unspecified),inactive: 29.7%,–
Cn1cccc1Cc1nnc(SCC(=O)NC2CCCCC2)n1CCc1ccccc1,–,"inconclusive [inhibitor, single point]"
COc1cccc(Cn2cnc3c(NS(=O)(=O)c4ccc(Cl)cc4Cl)c(C)c(C)cc32)c1,–,"inconclusive [inhibitor, single point]"
CCn1nc(C)cc1C(=O)NCC1Cc2cccc(-c3cccnc3)c2O1 (stereo unspecified),inactive: 11.9% [at 9.04 µM],–
Cc1ccccc1-c1cc(C(=O)NCc2cccs2)n(CC2CC(c3cccnc3)=NO2)n1 (stereo unspecified),–,"inconclusive [inhibitor, single point]"
CCc1ccc(-n2nnc(-c3nsc(NC(=O)c4ccccc4Cl)n3)c2C)cc1,–,"inconclusive [inhibitor, single point]"
Cc1ccc(-c2cccc(C3CC=CC4C3C(=O)N(Cc3ccccc3)C4c3ccc(C(F)(F)F)cc3)c2)cc1 (stereo unspecified),–,active: 13 µM
CCOc1ccc(C2C(C#N)=C(N)N(N(C)C)C3=C2C(=O)CCC3)cc1 (stereo unspecified),inactive: -4.52%,–
COc1ccc(C(NC(=O)C2CCN(CCOc3ccc(Cl)cc3Cl)CC2)c2ccccc2C)cn1 (stereo unspecified),–,"inconclusive [inhibitor, single point]"
O=C(Nc1ccccc1Oc1ccccc1)[C@@H]1O[C@H](CO)[C@H](O)[C@H](O)[C@H]1O,inactive: -2.78%,–
CN1c2ccsc2C(O)=C(C(=O)Nc2ccccc2)S1(=O)=O,–,"inconclusive [inhibitor, single point]"
CN1/C(=C\C(=S)NC(=O)c2cccc(Br)c2)C(C)(C)c2ccccc21,–,active: 9.2 µM
O=C(NC(=S)Nc1ccc(S(=O)(=O)N2CCCC2)cc1)C1CC1,–,"inconclusive [inhibitor, partial curve]"
CC(=O)Nc1ccc(NC(=O)c2cc(=O)c3ccccc3o2)cc1,–,"inconclusive [inhibitor, partial curve]"
COc1ccccc1Oc1coc2cc(O)ccc2c1=O,–,"inconclusive [inhibitor, full curve]"
CC1(C)c2cc(O)ccc2OC1N1CCOCC1 (stereo unspecified),inactive: -13.5%,–
CCOC(=O)c1cnc2cc(F)c(F)cc2c1N1CCOCC1,inconclusive: -36.7% [inhibitor],–
CC(C)NC(=O)c1ccc2c(c1)N(CC(=O)N1CCCC1)C(=O)C(C)(C)O2,inactive: 16.2%,–
Cc1ccc2c(c1)N(C(=O)N1CCC(C(=O)NCc3cccc(Br)c3)CC1)CCO2,–,"inconclusive [inhibitor, single point]"
CC1CCCN(S(=O)(=O)c2ccc(NC(=O)Cc3ccc(S(=O)(=O)N4CCOCC4)s3)cc2)C1 (stereo unspecified),–,"inconclusive [inhibitor, single point]"
CC(C)OCC1CO1 (stereo unspecified),inactive: 4.22%,–
CS(=O)(=O)N1CCN(c2ccccc2NC(=O)c2cccc3ccccc23)CC1,inactive: -0.366%,–
O=C(Nc1ccccc1)N1CCCC(c2nc(-c3ccc(F)cc3)no2)C1 (stereo unspecified),–,"inconclusive [inhibitor, single point]"

Compound,"activity change, negative = growth inhibition",Potency
CCCCCc1c(-c2cccc(Br)c2)ncn1CCc1ccccc1OC,–,active: 11.6 µM
CC(C)c1ccccc1NCC(=O)N1CCN(Cc2ccccc2)CC1,–,"inconclusive [inhibitor, single point]"
O=C(N/N=C/c1ccc[nH]1)c1ccc(COc2cccc3cccnc23)cc1,inactive: -15.6%,–
CCC(O)c1nc2ccccc2n1CCc1ccccc1 (stereo unspecified),–,"inconclusive [inhibitor, partial curve]"
COc1ccc2c(c1)c1ccc3c(c1n2C)C(=O)C=CC3=O,–,active: 0.731 µM
COc1ccc(Nc2nc3ccccc3nc2NS(=O)(=O)c2ccc(C)cc2)c(OC)c1,–,"inconclusive [inhibitor, partial curve, poor fit]"
COc1cc(NC(C)=O)ccc1NC(=O)c1cc2ccccc2o1,–,"inconclusive [inhibitor, single point]"
CCOC(=O)C1=C(CSc2nc(C)cc(C)c2C#N)OC(N)=C(C#N)C1c1ccccc1 (stereo unspecified),–,"inconclusive [inhibitor, partial curve, poor fit]"
COc1ccccc1/C=C/CN1CCCC(CCC(=O)NCc2ccc(F)c(F)c2)C1 (stereo unspecified),–,"inconclusive [inhibitor, single point]"
CCOC(=O)c1cc(-c2ccccc2)n(CCC(=O)NCc2ccccc2Cl)c1C,–,"inconclusive [inhibitor, single point]"
COC(=O)c1sc2cccc(F)c2c1S(=O)(=O)N1CCN(c2cccc(OC)c2)CC1,–,"inconclusive [inhibitor, single point]"
CN1CCN(C(=O)CCN2C(=O)/C(=C/c3cccc(Br)c3)SC2=S)CC1,–,"inconclusive [inhibitor, single point]"
CC(=O)Nc1ccc(NC(=O)COC(=O)c2cc(S(=O)(=O)N(C)C)ccc2N2CCCC2)cc1,inactive: -25.3%,–
CCOc1ccc(NC(=O)CN(C)C(=O)CSCc2ccc(C)cc2)cc1OCC,–,"inconclusive [inhibitor, single point]"
Cc1cc(F)ccc1-c1cc(C(=O)NCC2CCCCC2)[nH]n1,–,active: 20.6 µM
Cc1cc(/C=C2/C(=N)N3C(c4ccccc4)=CSC3=NC2=O)c(C)n1-c1ccccc1,–,active: 13 µM
C[C@@](N)(C(=O)O)c1ccc(C(=O)O)cc1,–,inactive
O=C(NCCC1=CCCCC1)c1cc(-c2ccccn2)nc2ccccc12,inactive: 7.57%,–
Cc1c(C(=O)OCC(=O)NCc2ccccc2)oc2ccccc12,inactive: -24.6%,–
COCCCNCCCOc1ccc(C(C)(C)c2ccccc2)cc1,–,"inconclusive [inhibitor, single point]"
COc1ccc(NC2=NC(=S)N(c3cccc(C)c3)C23CCCCC3)cc1,–,"inconclusive [inhibitor, partial curve]"
Cn1cnc(NCc2ccccc2)c1[N+](=O)[O-],inactive: 1.42%,–
CCOc1ccc(/C(CCC(=O)O)=N/NC(=O)c2cccc(S(=O)(=O)Nc3ccccc3OC)c2)cc1,inactive: -5.74%,–
